From PMC12040169 (PLOS Biology, 2025)
The other results are listed elsewhere or left out.

system: T1, C. trachomatis L2/434/Bu expressing GFP (CTL2-GFP); set-up: species or system HeLa; C. trachomatis total inclusion area by high-content imaging, normalised to DMSO; conditions: total inclusion area; 28.5 h, 10 µM; inhibitor
T1 construct: L2/434/Bu GFP intracellular growth in HeLa cells
Method in brief: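 Post-fluorescence-read fixation, DNA staining with Hoechst and high-content imaging; GFP inclusion area and number per well, and nuclei counts, used as proxies for bacterial growth and host viability.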

Structure (SMILES) | % of control remaining
Cc1cccnc1NC(=O)COc1ccc(Cl)cc1 [CBK262175] | 70.3994
CN1CCN(C(=O)c2[nH]c3ccccc3c2NS(=O)(=O)Cc2ccccc2)CC1 [CBK050046] | 86.6267
Cc1cccc(C)c1OCC(=O)Nc1cccc(Oc2ccc3c(c2)C(=O)N(c2ccccc2)C3=O)c1 [CBK265499] | 97.2644
CCOc1ccc(NC(=O)C2C3C=CC(O3)C2C(=O)O)cc1 (stereo not shown) [CBK261592] | 95.5728
O=C(Nc1ccccc1N1CCN(C(=O)c2ccc(Cl)cc2)CC1)c1ccc(-c2cccc([N+](=O)[O-])c2)o1 [CBK266398] | 113.228
Cc1ccc(CNC(=O)OCCN2CCN(C)CC2)o1 [CBK200205] | 104.517
N#Cc1cccc(C(=O)N2CCCC3(CCN(C(=O)Cc4c[nH]c5ccccc45)C3)C2)c1 (stereo not shown) [CBK131581] | 93.5065
COc1cccc(NC(=O)c2ccc(-c3cc(C(F)(F)F)cc(C(F)(F)F)c3)nc2N(C)C)c1 [CBK106028] | 79.2908
CCc1nc2c(OCc3ccccc3)cccn2c1N(C)C(=O)Nc1ccccc1OC [CBK147890] | 126.386
Cc1ccc(NC(=O)COc2ccccc2)c(NC(=O)c2ccco2)c1 [CBK266809] | 107.482
NCCn1cc(-c2cccc(F)c2)c(C2CCOCC2)n1 [CBK281696] | 115.837
CC1=CC(=O)Nc2ccccc2S1 [CBK028872] | 149.607
Fc1ccc(-c2[nH]c3ncccc3c2CN2CCOCC2)cc1 [CBK285310] | 101.032
COc1cccc(Oc2nccnc2-c2ccc3c(c2)OCO3)c1 [CBK106704] | 102.024
CC/C(=N\C(N)=O)c1ccccc1 [CBK009865] | 81.7975
O=P(O)(CCc1ccccc1)CN1CCOCC1 [CBK262305] | 112.113
Nc1ncc(-c2ccc(OC(F)(F)F)cc2)c2cccnc12 [CBK067594] | 86.0872
CCCC/C=C/c1ccc(Nc2ccc3c(c2)OCCO3)nc1 [CBK037774] | 112.175
Cn1cc(I)c(C(=O)NNC(=S)Nc2ccc(S(N)(=O)=O)cc2)n1 [CBK267066] | 121.712
CC(=O)NC(Cc1c[nH]c2ccccc12)/C(C)=N/O (stereo not shown) [CBK022711] | 111.199
Nc1c(N(CCO)C(=O)C2CCCC2)c(=O)[nH]c(=O)n1Cc1ccccc1 [CBK297490] | 104.293
O=C(NC1CCCCC1)c1ccc(-n2ccnc2)c(-n2cccc2)c1 [CBK285365] | 105.674
O=C(N/N=C/c1cc2c(cc1Br)OCO2)c1ccc(CN2CCOCC2)cc1 [CBK262721] | 77.3324
CC(C)CNC(=O)N1CCN(C2CCN(C)CC2)CC1 [CBK155902] | 96.2406
COC(=O)CCc1ccc(S(=O)(=O)N2CCCN(Cc3cccc(Cl)c3Cl)CC2)cc1 [CBK062988] | 29.8885
CCNC(=O)CN1CCN(C(C(=O)O)c2c[nH]c3ccc(C)cc23)CC1 (stereo not shown) [CBK286694] | 78.9781

Structure (SMILES) | % of control remaining
Cc1occc1-c1nnc(SCC(=O)Nc2ccccc2)n1C [CBK270308] | 103.722
CC(NC(=O)c1n[nH]c2c1CCC2)c1cccnc1 (stereo not shown) [CBK281488] | 99.3049
COc1cc(C(=O)Nc2ccc(N3CCN(C)CC3)cc2)ccc1OCc1ccc(Cl)cc1 [CBK266116] | 60.1138
Fc1cc(Br)c(CNCc2ncc[nH]2)c(N2CCCCC2)c1F [CBK304243] | 2.111
CCc1nc2c(OCc3ccccc3)cccn2c1N(Cc1ccc(OC)cc1)C(C)=O [CBK147887] | 97.3648
Cc1nn(C)cc1CNC(=O)C1C2CCC(C2)C1C(=O)O (stereo not shown) [CBK286875] | 105.34
C[C@@H]1C(=O)Nc2ccc(F)cc2N1C(=O)N1CCCC1 [CBK007936] | 75.0764
CCOc1ccc2c(c1)C(=O)c1cc(OCC(=O)O)ccc1-2 [CBK286693] | 78.5664
Nc1ncc(-c2cccs2)nc1-c1ccc(C(=O)O)cc1 [CBK064133] | 93.4797
CCCCNc1nnc(-c2nn(C)cc2Cl)s1 [CBK288021] | 85.2968
Cc1ccc(S(=O)(=O)NC(C)(C)CSc2nnc[nH]2)cc1 [CBK268374] | 106.833
CCOC(=O)C1CC1CN1CCN(S(=O)(=O)c2ccc(OCC)c3ncccc23)CC1 (stereo not shown) [CBK062785] | 81.4142
CN1CCC(C(=O)Nc2cnc(-c3cccc(OC(F)(F)F)c3)c(-c3cccnc3)n2)CC1 [CBK036882] | 127.703
CC(C)Nc1cncc(OCC2CN(C)CCN2C)n1 (stereo not shown) [CBK115602] | 104.644
Nc1nc(C2CC(N)C2)cc(N2CCC(Oc3ccccc3F)CC2)n1 (stereo not shown) [CBK306909] | 24.2498
NC(=O)Nc1ccc2c(c1)ncn2C1CCCCC1 [CBK288176] | 113.599
Cc1ccc(-c2nc(C3CCCN3C(=O)C3CC3C(=O)O)n3ccccc23)cc1 (stereo not shown) [CBK046559] | 138.535
COc1ccc(/C=C(\C)C(=O)Nc2cccnc2N2CCNCC2)cc1OC [CBK034124T] | 82.5428
COc1ccc(-c2cn(-c3ccc(OC)c(OC)c3)nn2)cc1 [CBK113001] | 73.493
CS(=O)(=O)CCOCCNC(=O)c1cc(Br)cnc1Cl [CBK305178] | 96.764
CCn1c(COc2cccc(C)c2)nnc1SCC(=O)c1ccccc1 [CBK267143] | 102.078
CC1(C)CC(=O)C=C(C(=O)Nc2cncc(OC3CCNCC3)n2)O1 [CBK038922T] | 99.3472
CC(C)(CO)CNc1nc(-c2cc(C(F)(F)F)cc(C(F)(F)F)c2)cnc1N [CBK063490] | 104.79
Cc1ccc(NC(=O)CN2C(=O)c3ccccc3C2=O)c(O)c1 [CBK270028] | 101.681
CC(NC(=O)N1CCSCC1)c1cccc(Br)c1 (stereo not shown) [CBK306475] | 57.8143
CC(=O)Nc1cccc(NC(=O)N2CCN(Cc3ccccc3)CC2)c1 [CBK155643] | 73.0272
